This is an account of results in article PMC9352240, “Selective Detection of Misfolded Tau From Postmortem Alzheimer’s Disease Brains” (Frontiers in Aging Neuroscience, 2022).

Data set [1] concerns the molecule itself. Nature of the data set: transmission electron microscopy of fibrils (negative stain); self-assembly into fibrils; 30 uM tau in 20 mM Tris pH 7.4 with 0.06 mg/ml heparin, 37°C, 10-12 days, uranyl acetate stain.
The target in data set [2] is misfolded tau seeds from postmortem Alzheimer's disease brain homogenates (human (endogenous in postmortem brain)). The data set is described as follows: cell-based or functional assay.
Data set [3] deals with the molecule itself. Nature of the data set: thioflavin T fluorescence aggregation kinetics; self-aggregation of recombinant tau alone; 30 uM tau, 60 ug/ml heparin, 10 uM ThT, 20 mM Tris pH 7.4, 37°C; t1/2 = time to half maximum ThT intensity.

B1: 4RCF tau (four microtubule-binding repeats, cysteine-free; 2N4R […] with C291S and C322S) (domain or fragment)
chain: not shown
notes: human tau (MAPT), the four repeat segments R1-R4, […]; numbers count on: the 2N4R isoform; Cloned with NdeI and XhoI into the same vector as the isoforms; also called truncation mutant 4RCF; tau fragment 4RCF; source: E. coli BL21-DE3, purified (Ni-NTA, size exclusion Superdex75 and Superdex200); not shown: His6, C-terminal, kept
For B1, the binding result in data set [1] is recorded as “binds”.

B2: recombinant full-length wild-type human tau isoform 2N3R (natural protein)
chain: not shown
In the case of B2, the “RT-QuIC (ThT fluorescence): t1/2 of seeded aggregation of 12 uM substrate with AD brain homogenate” value in data set [2] came to 23.8 h.

B3: recombinant full-length wild-type human tau isoform 1N3R (natural protein)
chain: not shown
notes: source: E. coli BL21-DE3, purified (boiling at 90°C, Ni-NTA, size exclusion Superdex75 and Superdex200); not shown: His6, C-terminal, kept
Take B3: the “t1/2 of self-aggregation (ThT fluorescence)” value in data set [3] is 4.3 h. In addition, in data set [2], the “RT-QuIC (ThT fluorescence): t1/2 of seeded aggregation of 12 uM substrate with AD brain homogenate” value is 22.3 h.
